Measured values: the antibiotic and cytotoxicity screens of Wong et al. (2023)
The other results are listed elsewhere or left out.

Test system: HepG2
Experiment: cytotoxicity call (relative viability < 0.9)
Conditions: 10 µM

| Compound | cytotoxicity call |
| --- | --- |
| CO[C@H]1CCN(C(=O)CN(C)C)[C@@H]2CCO[C@@H]12 | inactive |
| O=C(C[C@H]1CC[C@@H](NC(=O)CN2CCOCC2)[C@H](CO)O1)NCCc1ccccc1 | inactive |
| COc1ccc(CN(C)C[C@H]2Oc3c(NC(=O)C4CCOCC4)cccc3C(=O)N([C@@H](C)CO)C[C@@H]2C)cc1 | inactive |
| C[C@H](CO)N1C[C@H](C)[C@@H](CN(C)C(=O)Nc2cccc3ccccc23)OCCCC[C@H](C)Oc2ccc(NC(=O)CCCN(C)C)cc2C1=O | inactive |
| O=C(Cc1ccccn1)NCC[C@@H]1CC[C@H](NC(=O)CN2CCOCC2)[C@H](CO)O1 | inactive |
| C[C@@H]1CCCCO[C@H](CN(C)S(=O)(=O)c2ccc(Cl)cc2)[C@@H](C)CN([C@H](C)CO)C(=O)c2cc(NC(=O)Nc3ccc(C(F)(F)F)cc3)ccc2O1 | active |
| CC(C)NC(=O)Nc1ccc2c(c1)C(=O)N([C@@H](C)CO)C[C@H](C)[C@H](CN(C)S(=O)(=O)c1ccc(Cl)cc1)O2 | inactive |
| C[C@@H]1CCCCO[C@H](CN(C)Cc2ccc(C(=O)O)cc2)[C@@H](C)CN([C@@H](C)CO)C(=O)c2cc(NC(=O)Cc3ccccc3)ccc2O1 | inactive |
| C[C@@H]1CCCCO[C@@H](CN(C)C(=O)C2CCCCC2)[C@@H](C)CN([C@H](C)CO)C(=O)c2cc(NS(=O)(=O)c3ccc(Cl)cc3)ccc2O1 | inactive |
| C[C@@H]1CCCCO[C@H](CN(C)S(=O)(=O)c2cn(C)cn2)[C@@H](C)CN([C@H](C)CO)C(=O)c2cc(NS(=O)(=O)c3ccc(F)cc3)ccc2O1 | inactive |
| O=C(C[C@H]1CC[C@@H](NC(=O)c2ccc(F)cc2)[C@@H](CO)O1)NCc1ccncn1 | inactive |
| C[C@@H]1CN([C@@H](C)CO)C(=O)CCCn2nncc2CO[C@H]1CN(C)C(=O)Nc1ccccc1C(F)(F)F | inactive |
| NNC(=O)c1cc(-c2ccccc2)n[nH]1 | inactive |
| COc1ccc(CN(C)C[C@@H]2OCCCC[C@@H](C)Oc3ccc(NC(=O)Nc4cccc5ccccc45)cc3C(=O)N([C@H](C)CO)C[C@H]2C)cc1 | active |
| C[C@H](CO)N1C[C@H](C)[C@@H](CN(C)C(=O)Nc2ccc(F)cc2)OCCCC[C@H](C)Oc2ccc(NC(=O)c3ccccc3)cc2C1=O | inactive |
| COCC(=O)N(C)C[C@H]1Oc2cc(C#Cc3ccccc3)ccc2S(=O)(=O)N([C@@H](C)CO)C[C@H]1C | inactive |
| C[C@@H]1CN([C@@H](C)CO)C(=O)c2cc(NC(=O)NC3CCCCC3)ccc2O[C@@H]1CN(C)C(=O)Nc1cccc2ccccc12 | inactive |
| O=C1CN(S(=O)(=O)Cc2ccccc2)C[C@H]2[C@H](c3ccc(C#Cc4ccc(F)cc4)cc3)[C@@H](CO)N12 | inactive |
| COc1ccc(NC(=O)N(C)C[C@H]2OCCCC[C@@H](C)Oc3ccc(NS(=O)(=O)c4ccc(Cl)cc4)cc3C(=O)N([C@H](C)CO)C[C@@H]2C)cc1 | inactive |
| C[C@@H]1CN([C@H](C)CO)C(=O)c2cccc(NS(=O)(=O)c3cccs3)c2O[C@H]1CN(C)S(=O)(=O)c1cn(C)cn1 | inactive |

| Compound | cytotoxicity call |
| --- | --- |
| COc1ccc(CN(C)C[C@H]2OCCCC[C@H](C)Oc3ccc(NS(=O)(=O)c4ccc(OC)cc4)cc3C(=O)N([C@@H](C)CO)C[C@H]2C)cc1 | inactive |
| C[C@H](CO)N1C[C@H](C)[C@@H](CN(C)S(=O)(=O)c2cn(C)cn2)OCCCC[C@H](C)Oc2ccc(NC(=O)c3ccncc3)cc2C1=O | inactive |
| CC(=N)NCCSCC[C@H](N)C(=O)O | inactive |
| Cc1ccc(S(=O)(=O)N(C)C[C@@H]2OCCCC[C@@H](C)Oc3ccc(NS(=O)(=O)c4ccc(F)cc4)cc3C(=O)N([C@@H](C)CO)C[C@@H]2C)cc1 | inactive |
| O=C(/C=C/c1ccc(O)c(O)c1)O[C@@H]1C[C@@](O)(C(=O)O)C[C@@H](O)[C@@H]1O | active |
| NC(=O)NCc1ccc2c(c1)OCO2 | inactive |
| CC1=NC(=O)C2(CCNCC2)N1 | inactive |
| C[C@H](CO)N1C[C@H](C)[C@H](CN(C)S(=O)(=O)c2cccs2)Oc2ccc(NS(=O)(=O)c3cn(C)cn3)cc2C1=O | inactive |
| CN(C)CCCNC(=O)C[C@H]1CC[C@@H]2[C@H](COc3ccc(NC(=O)c4ccc5c(c4)OCO5)cc3C(=O)N2C)O1 | inactive |
| Cc1ccc(S(=O)(=O)Nc2ccc3c(c2)CC(=O)N([C@H](C)CO)C[C@@H](C)[C@@H](CN(C)C(=O)Nc2ccc(C(F)(F)F)cc2)O3)cc1 | inactive |
| C[C@@H]1CN([C@@H](C)CO)C(=O)c2cc(NC(=O)CCCN(C)C)ccc2O[C@H]1CN(C)C(=O)Nc1ccc(F)cc1 | inactive |
| CCN1CCN(C(=O)CN2C(=O)c3ccccc3S2(=O)=O)CC1 | inactive |
| CC(=O)OC1CC(O)C(C)(C)C2CC(OC(C)=O)C3(C)C(CCC4(C)C(c5ccoc5)OC(=O)C5OC543)C12C (stereo not given) | inactive |
| CN(C)CC(=O)N1[C@@H]2c3cccc(=O)n3C[C@H]1[C@H](CO)[C@H]2C(=O)NCc1ccccc1 | inactive |
| O=C1CN(C(=O)c2ccc3c(c2)OCO3)CCN1 | inactive |
| C[C@@H]1CN([C@H](C)CO)C(=O)c2cc(NC(=O)Nc3cccc4ccccc34)ccc2O[C@@H](C)CCCCO[C@H]1CN(C)Cc1ccncc1 | inactive |
| C[C@@H]1CN([C@@H](C)CO)C(=O)c2cc(NC(=O)C3CCCCC3)ccc2O[C@@H](C)CCCCO[C@@H]1CN(C)C(=O)Nc1ccc2c(c1)OCO2 | inactive |
| CC(C)NC(=O)Nc1ccc2c(c1)C(=O)N([C@@H](C)CO)C[C@@H](C)[C@H](CN(C)S(=O)(=O)c1ccc(F)cc1)O2 | inactive |
| C[C@@H]1CN([C@@H](C)CO)C(=O)Cc2cc(NC(=O)Nc3ccccc3)ccc2O[C@@H]1CN(C)Cc1ccc(Cl)c(Cl)c1 | active |
| C[C@@H]1CN([C@@H](C)CO)C(=O)c2cccc(NS(=O)(=O)c3ccc(Cl)cc3)c2O[C@@H]1CN(C)C(=O)Nc1ccc(C(F)(F)F)cc1 | active |
